Out of some 150,000 compounds screened, about 540 (0.36%) showed an effect of 50% or more. Some of the results follow.

This note sets out measurements from ChEMBL document CHEMBL4888484, “Replenishing the malaria drug discovery pipeline: Screening and hit evaluation of the MMV Hit Generation Library 1 (HGL1) against asexual blood stage Plasmodium falciparum ,using a nano luciferase reporter read-out” (2022).

The subject of this assay is Plasmodium falciparum. Briefly: Primary screen in NF54 nanoGlo assay, in single point, at 2uM, 72h; a lower Z score goes with more inhibition. The class given is functional, Erythrocyte. The conditions noted are these: timepoint 72 hour.
A word on the % Inhibition: it is the change of the read-out against control, counted positive when it falls. On to `Cc1cccc(C(=O)NC[C@H](C)OC(=O)C2CCN(C(=O)c3cccc(C)n3)CC2)n1`, for which the “% Inhibition” value is -5% and the Z score is recorded as 0.5.
Regarding `CN(CCO)C(=O)Nc1ccc(Cl)c(Br)c1`, the “% Inhibition” value is given as -10% and the Z score turned out to be 1.35.
For `COc1ncccc1C(=O)Nc1ccc(N2CCNC(=O)C2)nc1`, the “% Inhibition” value is -9% and the Z score turned out to be 1.33.
Consider `Cc1ccc(-c2nnc(C(C)N3CC4OCCN(C)C4C3)o2)cc1` (stereo not drawn), for which the “% Inhibition” value is on record as -6% and the Z score turned out to be 0.46.
Taken in the same sequence, the figures for `CN(Cc1ccc(Br)o1)C(=O)CC(C)(C)C` were -5% and 0.69.
Taken in the same sequence, the figures for `Cc1nnc(CNC(=O)c2cccnc2O[C@H]2CCOC2)o1` were -1% and 0.27.
Turning to `Cc1cnc(C2CC2)n1CCNC(=O)c1cn(C)cn1`, the “% Inhibition” value was determined as 13% and the Z score is -1.67.
With `CCn1c([C@H]2CCN(C(=O)c3ccc(OC)nc3)C2)nc2cccnc21`, the “% Inhibition” value is -7% and the Z score was 0.8.
With `COc1ccc(S(=O)(=O)N2CCC[C@H]2c2cc(C(C)C)no2)cc1`, the “% Inhibition” value is -5% and the Z score was found to be 0.74.
On to `CC(C)[C@H](NC(=O)OC(C)(C)C)c1nnc(S(=O)(=O)Cc2c(Cl)cccc2Cl)o1`, for which the “% Inhibition” value is given as 0% and the Z score was 0.04.
`COc1ccc(C(=O)NC2CCN(c3nc4c(s3)c(C)nn4-c3ccc(OC)cc3)CC2)cc1`: the “% Inhibition” value is recorded as -6% and the Z score came to 0.81.
As for `Cc1ncc(CO)c(CN2C[C@H]3CC[C@@H](C2)N(CC2CCC2)C3)c1O`, the “% Inhibition” value is given as -1% and the Z score was 0.07.
Taken in the same sequence, the figures for `Cc1nccc(N(CCC(F)(F)F)C[C@H](O)CO)n1` were -13% and 1.45.
Regarding `COc1ccc2[nH]cc(C(=O)c3sc(Nc4ccccc4C)nc3N)c2c1`, the “% Inhibition” value was -9% and the Z score is listed as 1.39.
On to `CC1(C)NC(=O)CC[C@@H]1NCc1ccc(C2CC2)cc1F`, for which the “% Inhibition” value is -1% and the Z score is reported as 0.17.
In the case of `CCCn1ncnc1Cn1cnc(C)c(C)c1=O`, the “% Inhibition” value is -6% and the Z score came out at 0.65.
With `CCN(CC)S(=O)(=O)NC(=O)Cc1c(F)cccc1F`, the “% Inhibition” value is on record as -10% and the Z score stood at 1.96.
As for `CCNc1nc(C)c(C(=O)N2CCO[C@H](C3CC3)C2)s1`, the “% Inhibition” value is -17% and the Z score is listed as 3.2.
With `CCc1ccc(NC(=O)N2C[C@H](C)C(=O)[C@@H](C)C2)cc1F`, the “% Inhibition” value is listed as -14% and the Z score is 2.27.
Taken in the same sequence, the figures for `Cc1ccccc1NS(=O)(=O)c1cc(C(=O)N2CCCCCC2)cs1` were 1% and -0.16.
Taken in the same sequence, the figures for `C[C@H]1C(=O)NCCCN1Cc1ccn(-c2ccccc2)n1` were -3% and 0.48.
In the case of `CCCN(C(=O)c1cnn(C)c1N)C1CC(OCC)C12CCCC2` (stereo not drawn), the “% Inhibition” value is recorded as -8% and the Z score amounted to 0.84.
In the case of `Cc1ccc(-c2cc(C(=O)N3CCC(C)CC3)n3nc(C(C)(C)C)cc3n2)cc1`, the “% Inhibition” value is -16% and the Z score came to 2.12.
Turning to `CCCN(Cc1c(C)nn(-c2cccc(F)c2)c1N1CCN(C)CC1)S(=O)(=O)c1ccc(Br)cc1`, the “% Inhibition” value is given as -16% and the Z score is 1.51.
Consider `Cn1ccnc1C(O)C1CCCN(C(=O)OC(C)(C)C)C1` (stereo not drawn), for which the “% Inhibition” value is recorded as -4% and the Z score is 0.63.
In the case of `CCn1ncc(C(=O)N[C@@H](C)c2cccc(-n3cccn3)c2)n1`, the “% Inhibition” value was determined as 7% and the Z score is -1.01.
Regarding `CC1(C)C[C@@H]1c1nnc(COc2ccc(C#N)cc2)o1`, the “% Inhibition” value was -15% and the Z score was determined as 2.38.
Regarding `Cn1nc(C(F)(F)F)cc1C(=O)N1CCC[C@](C)(c2ccccc2)C1`, the “% Inhibition” value is -1% and the Z score was found to be 0.16.
Take `COCc1csc(C(=O)Nc2cncc(C(C)C)c2)c1`: the “% Inhibition” value was -7% and the Z score turned out to be 1.12.
As to `O=c1c2ccccc2ncn1C[C@H](O)COc1ccc2ccccc2c1`, the “% Inhibition” value is -2% and the Z score turned out to be 0.4.
For `COC(=O)c1[nH]c(C)c(C(=O)N2CCN(c3cccc(C)c3)CC2)c1C`, the “% Inhibition” value is reported as -1% and the Z score amounted to 0.12.
Turning to `O=C(c1cnn2c1OCCC2)N1Cc2ncccc2N2CCC[C@H]2C1`, the “% Inhibition” value is on record as -10% and the Z score came out at 1.75.
For the molecule `Cc1ccccc1Nc1nc(N)nc(CN(C)CC(=O)Nc2cccc(F)c2)n1`, the “% Inhibition” value is on record as -14% and the Z score is 1.85.
For the molecule `COc1cccc(C(=O)N2CCc3nc(N(C)Cc4ccccc4)nc(Oc4cccc(F)c4)c3C2)c1`, the “% Inhibition” value is reported as -14% and the Z score is on record as 1.87.
Taken in the same sequence, the figures for `CC(C)c1nn(C)cc1CN(C)[C@@H](C)C#N` were -8% and 1.11.
`Cc1ccc(CS(=O)(=O)[C@@H](C)c2nnnn2C)cc1C`: the “% Inhibition” value was determined as 6% and the Z score is recorded as -0.98.
Regarding `COC(=O)N1C[C@@H]2[C@@H](CN(C)Cc3nc(C(C)C)no3)[C@@H]2C1`, the “% Inhibition” value was -9% and the Z score stood at 1.72.
On to `CCCN(CC(=O)N1CCc2sccc2[C@@H]1COc1ccc(C(C)C)cc1)C(=O)Nc1ccc(C)cc1`, for which the “% Inhibition” value was -3% and the Z score was 0.41.
Taken in the same sequence, the figures for `Cc1ccccc1OC1(C(=O)O)CCN(C(=O)[C@@H]2CC=CCC2)CC1` were -10% and 1.04.
On to `CC(=O)N[C@H]1CCN(C(=O)c2ccc(-c3ccc(C)nc3C)cc2)C1`, for which the “% Inhibition” value amounted to 4% and the Z score is on record as -0.68.
Taken in the same sequence, the figures for `O=C(N[C@H]1C[C@H](c2cc(=O)[nH]cn2)C1)c1nccnc1C(=O)N1CCCCC1` were -1% and 0.15.
In the case of `Cc1ccccc1N1C(=O)C2ON(c3ccccc3)C(c3ccncc3)C2C1=O` (stereo not drawn), the “% Inhibition” value is recorded as -5% and the Z score came out at 0.48.
Turning to `C[C@@]12CN(C(=O)CN3CCCS3(=O)=O)CC1[C@H]1CC[C@@H]2C1` (stereo partly drawn), the “% Inhibition” value is on record as -10% and the Z score was 1.02.
On to `COc1ccc(-c2noc([C@H](C)NC(=O)c3cccnc3)n2)cc1OC`, for which the “% Inhibition” value is given as 1% and the Z score is given as -0.2.
With `Cc1cccc(C(=O)Nc2c(C#N)c(-c3ccccc3)c(-c3ccccc3)n2Cc2ccccc2)c1`, the “% Inhibition” value is 33% and the Z score is on record as -0.45.
In the case of `COc1cccc(-c2cn[nH]c2C2CCN(Cc3cccs3)CC2)c1`, the “% Inhibition” value is -4% and the Z score is on record as 0.4.
Turning to `Oc1nnc(COc2ccc(Br)cc2)o1`, the “% Inhibition” value is 12% and the Z score is recorded as -1.73.
For the molecule `Cc1ccc(S(=O)(=O)N2C(=O)CC[C@H]2C(=O)N(C)C2CCCCC2)cc1C`, the “% Inhibition” value is given as -15% and the Z score is on record as 2.04.
In the case of `C#CCNC(=O)c1cc(Br)cnc1N(C)C`, the “% Inhibition” value is given as -3% and the Z score came to 0.36.
Turning to `Cc1cc(C)n(S(=O)(=O)c2cccc3nonc23)n1`, the “% Inhibition” value was -2% and the Z score is reported as 0.33.
For the molecule `CCc1ccc([C@H](C)NCC(C)(C)C(N)=O)s1`, the “% Inhibition” value is recorded as 9% and the Z score was -1.35.
In the case of `CC(C)c1ccc([C@H](C)NCC2(O)CCC(C(=O)O)CC2)cc1` (stereo partly drawn), the “% Inhibition” value was -1% and the Z score is listed as 0.16.
For `Cc1nn(C)c(C)c1S(=O)(=O)N1CCC[C@H](Cc2nc(-c3ccccc3F)no2)C1`, the “% Inhibition” value was found to be 12% and the Z score is -1.56.
`NC1(Cc2cc(-c3ccccc3)on2)COC1`: the “% Inhibition” value is recorded as -5% and the Z score is given as 0.7.
For `Cn1nccc1-c1nc(CCc2ccccc2)no1`, the “% Inhibition” value worked out at 4% and the Z score is -0.38.
`COc1cccc(-c2cc3nc(C(=O)O)cc(C4CC4)n3n2)c1`: the “% Inhibition” value is given as -4% and the Z score was 0.58.
For `Cc1nc(C)n(CCCNC(=O)N2CCC[C@H](c3nc4c(C)cccc4[nH]3)C2)n1`, the “% Inhibition” value worked out at 18% and the Z score is -2.29.
As for `COc1ccc(-n2ncnc2[C@H](C)N2CCCCC2)cc1`, the “% Inhibition” value was -16% and the Z score was 1.72.
As to `CC(NC(=O)C(C)n1ccnc1)c1cnn(C)c1` (stereo not drawn), the “% Inhibition” value was determined as 19% and the Z score is reported as -2.38.
On to `Cc1cc(C(=O)Nc2nc3c(s2)CN(C(=O)c2cc(C)oc2C)CC3)no1`, for which the “% Inhibition” value is on record as -16% and the Z score is reported as 2.3.
Taken in the same sequence, the figures for `OCCN1CCC[C@H](Nc2ncnc3c(F)cccc23)C1` were -7% and 0.98.
In the case of `CCOc1ccc(CC(=O)N2C3C=CCC2CC3)cc1` (stereo not drawn), the “% Inhibition” value is recorded as -2% and the Z score was found to be 0.41.
Taken in the same sequence, the figures for `C[C@@H](C(=O)OCc1cc2c(Cl)cccc2[nH]1)N(C)CC(F)(F)F` were -13% and 1.57.
As to `c1nc2c(c(N3CCOC4(CCCC4)C3)n1)CCNCC2`, the “% Inhibition” value is given as 3% and the Z score is -0.59.
On to `COC(=O)c1ccc2nn(C(C)=O)cc2c1`, for which the “% Inhibition” value is -3% and the Z score came out at 0.38.
Regarding `C=CCOc1nc2ccc(C)cc2cc1CNCCO`, the “% Inhibition” value turned out to be 3% and the Z score is given as -0.39.
Taken in the same sequence, the figures for `CCc1nnc(C)cc1C(=O)N1CCc2[nH]c3ccc(F)cc3c2C1` were 17% and -2.13.
Taken in the same sequence, the figures for `O=C(c1ncccn1)N1CC[C@H](Oc2ccncc2Cl)C1` were -4% and 0.7.
For `CO[C@H]1CN(C)C[C@@H]1Nc1ccc2ccccc2n1`, the “% Inhibition” value is reported as -5% and the Z score stood at 1.08.
Regarding `CCc1ccccc1NC(=O)CN1CCN(C(=O)c2cc(C)sc2C)CC1`, the “% Inhibition” value came out at 3% and the Z score is -0.38.
In the case of `C[C@@H](CN)N(C)c1ccnc2cc(Br)cnc12`, the “% Inhibition” value is recorded as 99% and the Z score is -17.88.
Regarding `C[C@@H](CC(=O)Nc1nc(C#N)c(C#N)[nH]1)c1cccc(C(F)(F)F)c1`, the “% Inhibition” value was 14% and the Z score is on record as -2.23.
Take `COc1cccc(-c2oncc2CN2CCC(C)CC2)c1`: the “% Inhibition” value is on record as 4% and the Z score is reported as -0.7.
In the case of `O=C1NC(=O)[C@@H]2CN(C(=O)C3(Cc4ccc(Cl)cc4)CC4CCC3C4)C[C@H]12` (stereo partly drawn), the “% Inhibition” value is recorded as -9% and the Z score worked out at 1.66.
For the molecule `COc1ccc(S(=O)(=O)N2C[C@H]3CN(S(=O)(=O)c4ccccc4)C[C@@H](C2)O3)cc1`, the “% Inhibition” value was -5% and the Z score is recorded as 0.91.
Consider `CC(C)(C)NC(=O)N1CCCN(S(=O)(=O)c2ccccc2)CCC(=O)NCC1`, for which the “% Inhibition” value came out at 2% and the Z score is given as -0.23.
Consider `COc1ccc(CCNc2nc(-c3ccc4[nH]c(=O)[nH]c4c3)cs2)cc1OC`, for which the “% Inhibition” value is reported as -10% and the Z score is 1.24.
As to `CC[C@@H](C(=O)NCc1ncc2c(n1)CCC2)n1cccn1`, the “% Inhibition” value was -6% and the Z score was 1.04.
Taken in the same sequence, the figures for `CN(C)[C@H]1[C@@H]2CC[C@H]1CN(C(=O)Cc1nc3cc(Cl)ccc3[nH]1)C2` were -7% and 1.09.
Consider `COc1ccc(-c2csc3c2NC(=O)C[C@H]3c2cccs2)cc1`, for which the “% Inhibition” value is recorded as -10% and the Z score was found to be 1.31.
Taken in the same sequence, the figures for `O=C(NCC1CCN(Cc2ncc[nH]2)CC1)c1ccon1` were -21% and 2.06.
For `CC1(C)C[C@H](CNS(=O)(=O)C2CC2)C(C)(C)O1`, the “% Inhibition” value was 1% and the Z score was -0.06.
Regarding `Clc1ccc(CNc2nnc(N3CCOCC3)c3ccccc23)cc1`, the “% Inhibition” value is listed as -12% and the Z score is given as 1.1.
Take `COc1cc(NCc2cn3ccnc3s2)nn1C`: the “% Inhibition” value is -1% and the Z score is on record as 0.07.
